62 molecules from PubChem BioAssay (NCI) can be followed below.

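96-well plates; 48 h exposure; 5 concentrations. Endpoints by linear interpolation between flanking doses. Not reached: highest tested concentration assigned. Here, GI50 denotes the concentration required for 50% inhibition of growth. Definition used: TGI = concentration required for complete inhibition of growth.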

In this assay the test system is NCI-H322M lung. Kind of assay: DTP human tumour cell line panel, 48 h.

As for `COC(=O)c1c(-c2ccc(Cl)cc2)cc2c3ccccc3n(C)c2c1C(=O)OC`, the TGI was > 100 µM.

For `O=C1CC(n2cccc2)c2c(Br)sc(Br)c21` (centres undefined), the TGI is 36.5 µM. This counts as double-digit micromolar.

For the molecule `Cc1nc2ccc(Cl)cc2c2c1CCN2c1ccccc1`, the concentration for total growth inhibition (TGI) turned out to be 49.9 µM.

Regarding `Cc1cc(C(O)CN(C)C)cc2c1ccc1cc(C(C)C)ccc12` (centres undefined), the GI50 was 1.97 µM and the TGI stood at 3.76 µM.

As for `O=C(Cc1ccccc1)NN1C(=O)/C(=C\c2ccc(O)cc2)SC1=Nc1ccccc1`, the total growth inhibition concentration (TGI) is > 100 µM.

For the molecule `O=C(c1ccc(Cl)cc1)C1OC12C(=O)Nc1ccccc12` (centres undefined), the TGI was > 56.6 µM.

On to `CC1CCC2N(C1)CC1C3(O)CC45OC6(O)C(O)CCC4(C)C6CCC5C3(O)CC(O)C1(O)C2(C)O` (centres undefined), for which the concentration for total growth inhibition (TGI) is > 100 µM.

On to `CN(C=O)/C=C/c1cc(O)ccc1O`, for which the concentration for total growth inhibition (TGI) was > 100 µM.

Consider `CC1CC/C(=C\c2ccc(Cl)cc2)c2nc(N)c(C#N)c(-c3ccc(Cl)cc3)c21` (centres undefined), for which the TGI is > 100 µM.

Take `C/C(Nc1ccc(Cl)cc1Cl)=C1/CCOC1=O`: the TGI was > 100 µM.

For the molecule `Cc1ccc(/C(O)=C/c2nc3ccc([N+](=O)[O-])cc3nc2/C=C(\O)c2ccc(C)cc2)cc1`, the TGI was > 100 µM.

On to `C=CC1CN2CCC1CC2C(O)c1ccnc2ccccc12` (centres undefined), for which the total growth inhibition concentration (TGI) is > 100 µM.

As to `CCOC(=O)c1cnccc1CC1(C#N)c2ccccc2C=CN1C(=O)c1ccccc1` (centres undefined), the concentration for total growth inhibition (TGI) was > 100 µM.

On to `COc1ccccc1CNCCCCCCCCCCCCN1C(=O)c2ccc3c4c(ccc(c24)C1=O)C(=O)N(CCCCCCCCCCCCNCc1ccccc1OC)C3=O`, for which the GI50 is > 50 µM and the concentration for total growth inhibition (TGI) is > 50 µM.

Regarding `CC1COCC(C)N1C1=C(Cl)C(=O)c2ccccc2C1=O` (centres undefined), the GI50 was 15.4 µM and the total growth inhibition concentration (TGI) came out at 29.1 µM.

As to `Nc1ccc2c(c1)c(N)nn2C(=O)Nc1ccc(Cc2ccccc2)cc1`, the GI50 is 13 µM and the total growth inhibition concentration (TGI) came to 27.5 µM.

With `C=[CH][Sn]([CH]=C)([O]c1cccc2cccnc12)[O]c1cccc2cccnc12`, the GI50 was 5.65 µM and the concentration for total growth inhibition (TGI) was found to be 16.4 µM.

Molecule `CCCCCCCCCCCCCc1nn[nH]n1` returned a total growth inhibition concentration (TGI) of 32.8 µM.

Take `CO[C@H]1C[C@H](O[C@H]2CC[C@]3(C=O)[C@H]4CC[C@]5(C)[C@@H](C6=CC(=O)OC6)CC[C@]5(O)[C@@H]4CC[C@]3(O)C2)O[C@H](C)[C@H]1O`: the TGI is 4.08 µM.

In the case of `CCOC(=O)C1COc2cc(-c3cc(=O)c4ccccc4o3)ccc2O1` (centres undefined), the TGI was > 100 µM.

Consider `O=c1cc(-c2ccccn2)[nH]c2ccc(Cl)cc12`, for which the TGI is > 100 µM.

As to `S=c1nc(-c2ccnc(-c3nc(=S)[nH][nH]3)c2)[nH][nH]1`, the total growth inhibition concentration (TGI) was > 100 µM.

Turning to `CC(=O)Oc1ccc2c(c1)CC[C@@H]1C2CC[C@]2(C)C(=O)NC(=O)CC12` (some centres undefined), the TGI was > 100 µM.

In the case of `CCN(CC)c1nc(N(C)C)c2ccccc2n1`, the TGI was > 100 µM.

`CCOC(=O)C1CCCCN1CCc1c[nH]c2ccccc12` (centres undefined): the TGI was > 100 µM.

`COC(=O)[C@@H]1CN(C(=O)c2ccccc2)C(=O)N1C(=O)OCc1ccccc1`: the TGI was > 100 µM.

As to `O=C1c2ccccc2C(=O)N1c1nc(-c2ccc(Cl)cc2)cc(N2N=C(c3ccc(Br)cc3)CC2c2ccccc2)n1` (centres undefined), the TGI is > 100 µM.

On to `COc1cc(/C=C(\C#N)C(N)=C(C#N)C#N)cc(O)c1O`, for which the concentration for total growth inhibition (TGI) was > 100 µM.

As to `NCCOCC(N)C(=O)O` (centres undefined), the concentration for total growth inhibition (TGI) was > 100 µM.

With `CC1CC[C@]2(C(=O)O)CCC3(C)C(=CCC4[C@@]5(C)CC[C@H](OS(=O)(=O)c6ccccc6)C(C)(C)C5CC[C@]43C)[C@@H]2[C@H]1C` (some centres undefined), the TGI was > 100 µM.

With `O=[N+]([O-])c1ccc(C(Nc2ccccc2)c2ccc3cccnc3c2O)cc1` (centres undefined), the concentration for total growth inhibition (TGI) was > 100 µM.

For `CC(=O)O[C@H]1CC[C@@]2(C)[C@H](CC[C@@H]3[C@@H]2CC[C@]2(C)[C@@H](c4ccc(=O)oc4)C[C@H]4O[C@]342)C1`, the TGI is 2.02 µM.

For `FC1OC2OC1C(OCc1ccccc1)C(OCc1ccccc1)C2OCc1ccccc1` (centres undefined), the TGI is > 100 µM.

On to `CCCNc1ncnc2[nH]ncc12`, for which the concentration for total growth inhibition (TGI) is > 100 µM.

Take `O=C1c2ccccc2-c2[nH]c3cn[nH]c(=O)c3c21`: the TGI was > 100 µM.

Consider `N[C@@H]1CCCC[C@@H]1N.O=P([O-])([O-])CN(CP(=O)([O-])[O-])CP(=O)([O-])[O-].[Pt+2]`, for which the GI50 is > 100 µM and the concentration for total growth inhibition (TGI) is > 100 µM.

Take `CSc1ccc(C(=O)C(=O)c2ccc(SC)s2)s1`: the TGI was > 10 µM.

`CC1=NN(C(=O)c2ccccc2O)C(=O)/C1=C/c1cccc([N+](=O)[O-])c1`: the total growth inhibition concentration (TGI) is > 100 µM.

As for `CNC(=O)CN(CC(N)=O)C(N)=O`, the TGI is > 100 µM.

`COc1cc2c(c(OC)c1OC)-c1ccc(SC)c(=O)cc1[C@@H](NC(=O)c1ccc(Cl)cc1)CC2`: the TGI was > 100 µM.

Regarding `O=c1cc(NCc2ccncc2)[nH]c(=O)[nH]1`, the concentration for total growth inhibition (TGI) is > 100 µM.

Take `N#CC1C=Cc2ccccc2N1C(=O)Oc1ccccc1` (centres undefined): the total growth inhibition concentration (TGI) is > 100 µM.

Regarding `OCNCCNc1nc2ccccc2c2[nH]c3ccccc3c12`, the GI50 was 1.46 µM and the total growth inhibition concentration (TGI) was determined as 3.88 µM.

As for `O=C1c2ccccc2C(=O)c2nc3ccc(Cl)cc3cc21`, the TGI was > 100 µM.

For the molecule `CC1(C2CCC3(C)OC3C2)CO1` (centres undefined), the TGI is > 100 µM.

On to `CC(=O)N(Cc1ccccc1)c1ccccc1I(=O)=O`, for which the GI50 is > 100 µM and the TGI was > 100 µM.

Take `Cc1nc(-c2cc3cc(Cl)ccc3oc2=O)cc2c1c(=O)oc1ccc(Cl)cc12`: the TGI is > 100 µM.

Turning to `CO[C@@]12[C@@H]3NC3CN1C1=C(C(=O)C(N)=C(C)C1=O)[C@@H]2COC(N)=O` (some centres undefined), the total growth inhibition concentration (TGI) is 2.69 µM.

As for `COc1ccc2nc3ccccc3c(NCCCCN(C)CCCl)c2c1`, the concentration for total growth inhibition (TGI) is 2.38 µM.

Turning to `Nc1ccc(S(=O)(=O)Nc2cnc3c(Cl)cccc3n2)cc1`, the GI50 was > 86.5 µM and the TGI was > 750 µM.

As to `Cc1cc(Cl)cc2c1NC(=O)C2=O` (tested in a mixture with another compound), the TGI is > 100 µM.

As for `Cc1cc2cc3c(cc2c(-c2ccc(N)cc2)n1)OCO3`, the TGI is > 100 µM.

As for `Cc1c(C(=O)CSc2nc3ccccc3[nH]2)c(=O)n(-c2ccccc2)n1C`, the TGI is > 100 µM.

As for `C#CCC1(C(=O)OCC)C(=O)c2ccccc2N(C)C1=O` (centres undefined), the TGI is > 100 µM.

Take `CC/C=C\C/C=C\C[C@H](O)C/C=C1/C(=O)C=C[C@@H]1C/C=C\CCCC(=O)OC`: the GI50 is 3.12 µM and the concentration for total growth inhibition (TGI) was 10.4 µM.

In the case of `COc1ccc(C2CCc3cc4c(cc3/C2=N/OC(C)=O)OCO4)cc1OC` (centres undefined), the total growth inhibition concentration (TGI) is > 100 µM.

For the molecule `CC(C)(C)C1CC[C@H](O)[C@H]([C@H](O)CC2CC(=O)N(c3ccccc3)C(=O)C2)C1` (some centres undefined), the TGI was > 100 µM.

In the case of `O=C(/C=C/c1cccs1)c1ccccc1Cl`, the total growth inhibition concentration (TGI) was found to be 28.8 µM.

As to `CC(C)OC1OC(CO)C(O)CC1n1cc(F)c(=O)[nH]c1=O` (centres undefined), the concentration for total growth inhibition (TGI) is > 100 µM.

Turning to `CCOC(=O)c1cn(C)c(=S)n2c1nc1ccccc12`, the TGI was > 100 µM.

Take `O=c1c2ccccc2oc2ccc(OCCCCCCN3CCCCCC3)cc12`: the GI50 is 9.31 µM and the TGI worked out at 22.1 µM.

`CC1(C)CC[C@]2(C(N)=O)CC[C@]3(C)C(=CC[C@@H]4[C@@]5(C)C/C(=C/c6ccncc6)C(=O)C(C)(C)[C@@H]5CC[C@]43C)[C@@H]2C1`: the GI50 is 2.59 µM and the TGI worked out at 11.4 µM.
